From the supplement of paper PMC7826260
The list shows a part of the results. Viral Rep nickase domains cut single-stranded DNA in vitro at 3 µM enzyme and 37 °C for 1 h; the strands have 90 letters, of which the middle is given. Uncut reads are compared with the no-enzyme pool on a log2 scale; strong cutting gives strongly negative numbers. There is no active / inactive call. Counts are relative to all reads; uncut strands gain when others are lost, and binding without cutting may add a little.

Experiments:
Assay in all cases: uncleaved DNA left, log2 of reads against the no-enzyme library (log2 ratio); higher = less cleavage (more negative = more Rep cleavage of the k-mer); sequences stand for … in CTCGTCCG…ACCGGAGA
[1] = system: T1, Rep nickase domain of Muscovy duck circovirus
T1 sequence (residues 1-111 of Rep, tag left off): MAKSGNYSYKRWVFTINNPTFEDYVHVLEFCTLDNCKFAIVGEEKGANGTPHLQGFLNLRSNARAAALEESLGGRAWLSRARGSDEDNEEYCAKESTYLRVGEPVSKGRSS
Method: (§1)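 A pool of 90-nt single-stranded DNAs with seven random bases just before the constant AC of the nick site (name = the seven bases) was cut by 3 µM recombinant His6-SUMO-tagged Rep nickase domain (300 nM DNA, 50 mM HEPES pH 8.0, 50 mM NaCl, 1 mM MnCl2, 1 h, 37 °C, three replicates). Uncut DNA was amplified and sequenced.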

[2] = system: T2, Rep nickase domain of banana bunchy top virus
T2 sequence (residues 1-94 of Rep, tag left off): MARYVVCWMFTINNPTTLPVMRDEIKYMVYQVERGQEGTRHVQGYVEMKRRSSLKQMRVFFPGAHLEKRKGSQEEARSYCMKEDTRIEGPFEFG
Method: as §1

[3] = system: T3, Rep nickase domain of cabbage leaf curl virus
T3 sequence (residues 1-116 of Rep, tag left off): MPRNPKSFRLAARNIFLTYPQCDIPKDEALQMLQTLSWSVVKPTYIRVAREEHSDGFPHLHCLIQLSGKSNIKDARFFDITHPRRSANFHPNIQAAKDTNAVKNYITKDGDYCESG
Method: as §1

[4] = system: T4, Rep nickase domain of chickpea chlorotic dwarf virus
T4 sequence (residues 1-124 of Rep, tag left off): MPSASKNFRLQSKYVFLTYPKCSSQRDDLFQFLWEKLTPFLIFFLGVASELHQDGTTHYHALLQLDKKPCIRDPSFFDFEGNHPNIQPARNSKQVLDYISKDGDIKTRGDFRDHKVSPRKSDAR
Method: as §1

[5] = system: T5, Rep nickase domain of faba bean necrotic yellows virus
T5 sequence (residues 1-98 of Rep, tag left off): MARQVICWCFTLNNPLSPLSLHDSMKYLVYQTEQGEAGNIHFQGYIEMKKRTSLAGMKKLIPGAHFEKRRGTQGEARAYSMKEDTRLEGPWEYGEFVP
Method: as §1

[6] = system: T6, Rep nickase domain of maize striate mosaic virus
T6 sequence (residues 1-117 of Rep, tag left off): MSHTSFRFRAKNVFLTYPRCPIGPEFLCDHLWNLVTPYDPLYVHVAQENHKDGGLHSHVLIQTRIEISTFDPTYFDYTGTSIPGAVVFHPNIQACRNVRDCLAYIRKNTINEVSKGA
Method: as §1

[7] = system: T7, Rep nickase domain of porcine circovirus 2
T7 sequence (residues 2-116 of Rep, tag left off): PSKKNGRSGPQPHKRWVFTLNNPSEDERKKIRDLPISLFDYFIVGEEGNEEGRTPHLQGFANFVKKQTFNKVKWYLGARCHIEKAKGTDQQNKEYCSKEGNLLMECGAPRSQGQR
Method: as §1

[8] = system: T8, Rep nickase domain of tomato yellow leaf curl virus
T8 sequence (residues 1-136 of Rep, tag left off): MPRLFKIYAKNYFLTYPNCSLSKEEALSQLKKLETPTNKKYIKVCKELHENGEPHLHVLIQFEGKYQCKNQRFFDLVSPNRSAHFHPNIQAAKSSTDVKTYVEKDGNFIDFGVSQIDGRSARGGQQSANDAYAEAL
Method: as §1

[9] = system: T9, Rep nickase domain of wheat dwarf virus
T9 sequence (residues 1-137 of Rep, tag left off): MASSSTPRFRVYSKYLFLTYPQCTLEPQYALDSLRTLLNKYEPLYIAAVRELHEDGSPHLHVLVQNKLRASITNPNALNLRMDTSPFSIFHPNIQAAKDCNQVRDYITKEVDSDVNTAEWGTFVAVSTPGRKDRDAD
Method: as §1

| Sequence | uncleaved DNA left (log2) [1] | uncleaved DNA left (log2) [2] | uncleaved DNA left (log2) [3] | uncleaved DNA left (log2) [4] | uncleaved DNA left (log2) [5] | uncleaved DNA left (log2) [6] | uncleaved DNA left (log2) [7] | uncleaved DNA left (log2) [8] | uncleaved DNA left (log2) [9] |
| --- | --- | --- | --- | --- | --- | --- | --- | --- | --- |
| TGGTCCA | -0.0495 | 0.121 | 0.238 | 0.093 | -0.0519 | 0.822 | -0.152 | 0.121 | 0.106 |
| TCTGCCG | -0.101 | -0.0555 | -0.822 | -0.216 | 0.0131 | -0.916 | 0.0799 | -0.0856 | -0.0294 |
| AAGGCGG | 0.0853 | 0.0723 | 0.107 | 0.431 | 0.0229 | 0.126 | 0.206 | -0.0579 | -0.00118 |
| ATGATAG | 0.0116 | -0.00548 | -0.824 | -0.402 | -0.0484 | -1.29 | 0.158 | -0.0531 | -0.0562 |
| CGCTCAC | -0.169 | -0.0462 | -0.0405 | -0.538 | -0.0788 | -0.524 | -0.108 | -0.085 | -0.0905 |
| ACAAGCG | -0.044 | 0.0183 | -0.504 | 0.936 | -0.0538 | -0.0846 | 0.0627 | 0.00429 | -0.0775 |
| TTAGAGA | 0.0614 | 0.0346 | 0.344 | 0.343 | -0.0324 | -0.366 | 0.0362 | 0.0644 | 0.118 |
| TGGTGCT | -0.554 | 0.0272 | -0.27 | -0.652 | -0.0187 | -0.544 | -2.79 | 0.0453 | -0.0419 |
| GGTGCCG | 0.09 | -0.0717 | -0.517 | -0.179 | -0.0801 | -0.38 | 0.182 | -0.0336 | -0.114 |
| GGCCCGT | 0.0909 | 0.104 | 0.52 | 0.994 | -0.0801 | 1.59 | 0.173 | -0.0118 | 0.0472 |
| AAGACCA | -0.0611 | -0.0388 | 0.04 | -0.53 | -0.155 | 0.396 | -0.457 | -0.146 | 0.0681 |
| GTTGACT | 0.113 | 0.0464 | 0.363 | 0.93 | 0.0102 | 1.65 | 0.138 | 0.155 | 0.0943 |
| TAAAGAC | -0.0522 | -0.0197 | -0.0358 | -0.502 | -0.038 | -0.104 | 0.163 | -0.0292 | -0.0616 |
| TGTCTAC | 0.0733 | 0.0525 | 0.392 | 0.185 | 0.0497 | 1.51 | 0.113 | 0.0251 | 0.0998 |
| CACACCA | -0.213 | -0.156 | -0.206 | -2.55 | -0.0933 | -0.652 | -0.279 | -0.174 | -0.107 |
| TATGAGC | 0.186 | 0.0655 | -0.274 | -0.452 | 0.0424 | -1.02 | 0.233 | 0.0498 | 0.00549 |
| AGGGTCG | -0.0163 | 0.0658 | -0.537 | -0.536 | 0.065 | -0.74 | 0.249 | 0.062 | -0.026 |
| GGACGCA | 0.12 | 0.101 | 0.775 | 1.64 | 0.113 | 2.11 | 0.247 | 0.0761 | 0.151 |
| GCTTTAT | -0.042 | 0.124 | 0.196 | 0.373 | 0.102 | 0.346 | -0.192 | 0.0311 | -0.00195 |
| ACCCATA | 0.149 | 0.00188 | -0.121 | -1.18 | 0.188 | -0.553 | -0.0283 | 0.0389 | 0.103 |
| GCATCAC | 0.0418 | 0.143 | 0.00762 | 0.179 | -0.0697 | -0.249 | 0.208 | 0.0432 | 0.104 |
| CACATTA | -0.243 | 0.097 | -0.378 | -1.93 | -0.00189 | -0.842 | -0.0715 | -0.0604 | -0.104 |
| TTTTTAG | -0.043 | -0.159 | -0.749 | -0.659 | -0.0862 | -1.26 | 0.0346 | -0.0221 | -0.064 |
| CATGATG | -0.0192 | -0.0397 | -0.364 | -0.282 | -0.133 | -0.718 | 0.0244 | -0.0956 | -0.0563 |
| AGTATTG | 0.0864 | 0.0842 | -0.0835 | 0.221 | -0.0363 | 0.0213 | 0.148 | -0.052 | 0.000459 |
| GAATGGG | 0.0147 | 0.0128 | -0.421 | -0.253 | 0.0283 | -0.714 | 0.158 | -0.0587 | 0.00118 |
| GCAAGTA | 0.128 | 0.0604 | 0.133 | -0.316 | 0.186 | -0.157 | 0.083 | 0.129 | 0.0411 |
| TTTCCTA | -0.07 | 0.0149 | 0.0534 | -0.571 | -0.00389 | 0.117 | -0.446 | -0.0145 | -0.0254 |
| CCGGGCT | 0.0413 | 0.0319 | 0.261 | 0.405 | -0.0354 | 0.851 | 0.08 | -0.0502 | -0.0993 |
| AGGGCCG | -0.111 | 0.0352 | -0.449 | -0.434 | -0.053 | -0.705 | 0.183 | -0.0125 | -0.0636 |
